# Out of some 39,000 compounds screened, about 220 (0.56%) showed activity. The list shows a part of the results.
# Test system: Escherichia coli K-12 BW25113
# Assay: relative growth (OD600 normalised to plate interquartile mean) (fraction); higher = less growth inhibition, active = 0.2 or less
# Settings: 50 µM; LB; incubation time: overnight (16-24 h)
# 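Note: static incubation at 37 °C against the wild-type strain, values averaged over two biological replicates.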
row,SMILES,relative growth
1,C[C@@H]1CCCCO[C@@H](CN(C)Cc2ccc(C(=O)O)cc2)[C@@H](C)CN([C@H](C)CO)C(=O)c2cc(NC(=O)Nc3ccc(F)cc3)ccc2O1,inactive: 1
2,Cc1ccc(S(=O)(=O)N(C)C[C@H]2Oc3c(NS(=O)(=O)c4cccs4)cccc3C(=O)N([C@@H](C)CO)C[C@H]2C)cc1,inactive: 1
3,COC(=O)C=CC(C)=CC=CC(C)=CC=CC=C(C)C=CC=C(C)C=CC(=O)O,inactive: 1.02
4,CN(C)CCCNC(=O)C[C@@H]1CC[C@@H]2[C@H](COc3ccc(NS(C)(=O)=O)cc3C(=O)N2C)O1,inactive: 1
5,COc1ccc(S(=O)(=O)N(C)C[C@@H]2Oc3ccc(NC(=O)NC(C)C)cc3C(=O)N([C@H](C)CO)C[C@@H]2C)cc1,inactive: 1.02
6,COc1ccc(NC(=O)N(C)C[C@H]2Oc3c(NC(=O)c4cnccn4)cccc3C(=O)N([C@@H](C)CO)C[C@@H]2C)cc1,inactive: 0.961
7,IC(I)I,inactive: 0.575
8,CN1C(=O)c2ccccc2C1=O,inactive: 0.984
9,Cc1nn2cc(CN)nc2s1,inactive: 1.01
10,O=C(C[C@H]1C[C@@H]2c3cc(NC(=O)c4cccnc4)ccc3O[C@@H]2[C@@H](CO)O1)NCc1cc(F)ccc1F,inactive: 0.977
11,Cn1cnc(S(=O)(=O)N[C@@H]2C=C[C@@H](CC(=O)N3CCN(c4ccccc4)CC3)O[C@H]2CO)c1,inactive: 1.01
12,C[C@@H]1CN([C@H](C)CO)C(=O)c2cccc(NC(=O)Nc3cccc4ccccc34)c2O[C@@H]1CN(C)C(=O)Nc1ccc(C(F)(F)F)cc1,inactive: 0.984
13,CCNC(=O)C[C@@H]1CC[C@H]2[C@@H](COC[C@@H](O)CN2C(=O)Nc2c(C)noc2C)O1,inactive: 1.01
14,C[C@H]1CN([C@@H](C)CO)C(=O)c2cccc(NC(=O)Nc3ccc(C(F)(F)F)cc3)c2O[C@H]1CN(C)Cc1ccc(C(F)(F)F)cc1,inactive: 1.01
15,Cc1ccc(N2CCC[C@]3(CCNC3=O)C2)nn1,inactive: 1.01
16,CC(=O)CNC(=O)Cc1ccccc1,inactive: 1
17,C[C@@H]1CCCCO[C@@H](CN(C)C(=O)Nc2ccc(C(F)(F)F)cc2)[C@@H](C)CN([C@H](C)CO)C(=O)c2cc(NC(=O)Nc3ccc(C(F)(F)F)cc3)ccc2O1,inactive: 0.999
18,C[C@@H]1CN([C@H](C)CO)C(=O)CCCn2cc(nn2)CO[C@@H]1CN(C)S(=O)(=O)c1ccc(Oc2ccccc2)nc1,inactive: 1.01
19,Cc1noc(C)c1NC(=O)N(C)C[C@H]1Oc2ccc(NC(=O)Cn3cnnn3)cc2CC(=O)N([C@H](C)CO)C[C@H]1C,inactive: 0.994
20,COc1cccc(NC(=O)N[C@@H]2C=C[C@H](CC(=O)N3CCOCC3)O[C@H]2CO)c1,inactive: 0.989
21,O=C([O-])P(=O)([O-])[O-].[Na+].[Na+].[Na+],inactive: 1.03

row,SMILES,relative growth
1,C[C@@H]1CCCCO[C@H](CN(C)C(=O)c2ccncc2)[C@@H](C)CN([C@H](C)CO)C(=O)c2cc(NS(=O)(=O)c3ccc(Cl)cc3)ccc2O1,inactive: 0.958
2,Cc1ccc(S(=O)(=O)N(C)C[C@H]2Oc3c(NC(=O)c4ccncc4)cccc3C(=O)N([C@H](C)CO)C[C@@H]2C)cc1,inactive: 0.97
3,COc1ccc(-c2cnc3c(c2)C(=O)N([C@@H](C)CO)C[C@@H](C)[C@@H](CN(C)S(=O)(=O)c2ccc(OC)cc2)O3)cc1,inactive: 1.01
4,Cc1noc(C)c1NC(=O)Nc1ccc2c(c1)C(=O)N([C@H](C)CO)C[C@H](C)[C@@H](CN(C)Cc1ccc(C(F)(F)F)cc1)OCCCC[C@@H](C)O2,inactive: 1.03
5,Cc1ccc(S(=O)(=O)N(C)C[C@@H]2Oc3ccc(N(C)C)cc3CC(=O)N([C@H](C)CO)C[C@H]2C)cc1,inactive: 1
6,Cc1noc(C)c1S(=O)(=O)N(C)C[C@@H]1Oc2ccc(NC(=O)CCC(F)(F)F)cc2CC(=O)N([C@H](C)CO)C[C@H]1C,inactive: 1.03
7,CC(C)NC(=O)Nc1ccc2c(c1)C(=O)N([C@H](C)CO)C[C@H](C)[C@@H](CN(C)S(=O)(=O)c1cn(C)cn1)O2,inactive: 1.01
8,C[C@@H]1CN([C@H](C)CO)C(=O)c2cccc(NC(=O)c3nc4ccccc4s3)c2O[C@H]1CN(C)Cc1ccc(C(F)(F)F)cc1,inactive: 0.969
9,Cc1noc(C)c1NC(=O)Nc1ccc2c(c1)C(=O)N([C@H](C)CO)C[C@@H](C)[C@H](CN(C)S(=O)(=O)c1ccc(Cl)cc1)OCCCC[C@@H](C)O2,inactive: 0.863
10,C[C@@H]1CN([C@H](C)CO)S(=O)(=O)c2ccc(C#CC3CCCCC3)cc2O[C@H]1CN(C)C(=O)Cc1ccncc1,inactive: 0.974
11,CNC(=O)C(=O)NCCc1c[nH]c2ccccc12,inactive: 1.04
12,Nc1nc2ccc(OC(F)(F)F)cc2s1,inactive: 0.943
13,COc1ccc(S(=O)(=O)N[C@@H]2CC[C@@H](CCNC(=O)CN3CCOCC3)O[C@H]2CO)cc1,inactive: 1
14,CCC[C@@H](O)C#Cc1cnc2c(c1)C(=O)N([C@H](C)CO)C[C@H](C)[C@H](CN(C)C(=O)Nc1ccc3c(c1)OCO3)O2,inactive: 0.895
15,C[C@@H]1CN([C@H](C)CO)C(=O)c2cc(NC(=O)CCN3CCOCC3)ccc2O[C@H]1CN(C)S(=O)(=O)c1ccc(Cl)cc1,inactive: 0.987
16,Cc1csc2sc(COC(=O)Nc3ccccc3)c(C)c12,inactive: 0.934
17,C[C@H](CO)N1C[C@H](C)[C@@H](CN(C)Cc2ccc(Cl)c(Cl)c2)Oc2c(NC(=O)C3CCCCC3)cccc2C1=O,inactive: 0.952
18,CC(=O)N(C)C[C@@H]1Oc2cc(C#CCN(C)C)ccc2S(=O)(=O)N([C@H](C)CO)C[C@@H]1C,inactive: 1.04
19,COc1cccc(S(=O)(=O)N(C)C[C@H]2Oc3ncc(C#CCC(C)C)cc3C(=O)N([C@H](C)CO)C[C@H]2C)c1,inactive: 0.993
20,O=c1c2cc(O)c(O)cc2oc2cc(O)c([C@H]3O[C@H](CO)[C@H](O)[C@@H](O)[C@H]3O)c(O)c12,inactive: 0.998
21,CCn1[nH]c(N)c2c(=O)[nH]c(=O)cc1-2,inactive: 1

row,SMILES,relative growth
1,CCCNC(=O)N[C@H]1C=C[C@@H](CC(=O)N2CCN(C)CC2)O[C@@H]1CO,inactive: 1.01
2,COc1cc(N2CCC(N(C)C)CC2)ccc1Nc1ncc(Cl)c(Nc2ccccc2P(C)(C)=O)n1,inactive: 0.979
3,COc1ccc2c(c1)c(CC(=O)O)c(C)n2C(=O)c1ccc(Cl)cc1,inactive: 0.919
4,C[C@H](CO)N1C[C@H](C)[C@@H](CN(C)S(=O)(=O)c2cccs2)OCCCC[C@H](C)Oc2ccc(NC(=O)c3ccccc3)cc2C1=O,inactive: 1.04
5,C[C@H]1CN([C@@H](C)CO)C(=O)Cc2cc(NC(=O)Nc3cccc4ccccc34)ccc2O[C@H]1CN(C)Cc1ccccc1,inactive: 0.983
6,CC(C)NC(=O)N(C)C[C@@H]1Oc2c(NS(=O)(=O)c3ccc(Cl)cc3)cccc2C(=O)N([C@H](C)CO)C[C@@H]1C,inactive: 1.01
7,CC1(C)C=Cc2c(c3c(c4c(=O)c(-c5ccc(O)c(O)c5)coc24)OC(C)(C)CC3)O1,inactive: 0.981
8,CC1(C)SCN(S(=O)(=O)c2ccccc2)[C@@H]1C(=O)N[C@@H](CNC(=O)NCc1ccccc1)C(=O)O,inactive: 0.997
9,C[C@@H]1CN([C@H](C)CO)C(=O)CCCn2nncc2CO[C@@H]1CN(C)C(=O)Nc1cccc2ccccc12,inactive: 0.988
10,C=C/C=C/[C@@H]1C(=C)CN([C@@H](Cc2ccccc2)C(=O)OC)[C@H]1[C@@H](O)CCn1cc(CCC(=O)NO)nn1,inactive: 0.973
11,C[C@@H]1CN([C@H](C)CO)C(=O)c2cccc(NC(=O)Nc3ccc(C(F)(F)F)cc3)c2O[C@H]1CN(C)S(C)(=O)=O,inactive: 0.953
12,COc1ccc(NC(=O)N(C)C[C@@H]2OCCCC[C@@H](C)Oc3ccc(NC(=O)NC(C)C)cc3C(=O)N([C@H](C)CO)C[C@@H]2C)cc1,inactive: 1
13,COc1cc2c(cc1O)CCN[C@]21CS[C@@H]2c3c(OC(C)=O)c(C)c4c(c3[C@H](COC1=O)N1[C@@H]2[C@H]2c3c(cc(C)c(OC)c3O)C[C@@H]([C@@H]1O)N2C)OCO4,inactive: 0.453
14,C[C@H]1CN([C@@H](C)CO)C(=O)c2cccc(NC(=O)Nc3ccccc3)c2O[C@H]1CN(C)Cc1ccc(C(=O)Nc2ccccc2N)cc1,inactive: 1.02
15,COc1ccccc1C#Cc1ccc2c(c1)O[C@@H](CN(C)Cc1cncnc1)[C@H](C)CN([C@H](C)CO)S2(=O)=O,inactive: 1.03
16,CCCn1c(N)nc2c1c(=O)n(C)c(=O)n2C,inactive: 1.03
17,C[C@@H]1CN([C@@H](C)CO)C(=O)c2cc(NS(=O)(=O)c3ccccc3)ccc2O[C@@H](C)CCCCO[C@@H]1CN(C)C(=O)Nc1ccc(F)cc1,inactive: 0.997
18,C[C@H](N[P@@](=O)(OC[C@H]1O[C@@H](n2ccc(N)nc2=O)C(F)(F)[C@@H]1O)Oc1ccccc1)C(=O)OCc1ccccc1,inactive: 0.982
19,O=C(C[C@@H]1C[C@@H]2c3cc(NS(=O)(=O)c4ccccc4)ccc3O[C@@H]2[C@H](CO)O1)NC1CCCCC1,inactive: 1.04
20,COc1ccc(CN(C)C[C@@H]2OCCCC[C@H](C)Oc3ccc(NC(=O)Nc4c(C)noc4C)cc3C(=O)N([C@H](C)CO)C[C@@H]2C)cc1,inactive: 1.03
21,C[C@@H]1CN([C@@H](C)CO)C(=O)Cc2cc(NS(=O)(=O)c3cn(C)cn3)ccc2O[C@@H]1CN(C)S(C)(=O)=O,inactive: 0.992
